The other results are listed elsewhere or left out. At the low end of the ranking, values are background and their order means little. Measured with an extract: partners may take part in the binding.

In the assay the target is T1, HNF4alpha2 (COS-7 nuclear extract) (UniProt P41235).
T1 sequence: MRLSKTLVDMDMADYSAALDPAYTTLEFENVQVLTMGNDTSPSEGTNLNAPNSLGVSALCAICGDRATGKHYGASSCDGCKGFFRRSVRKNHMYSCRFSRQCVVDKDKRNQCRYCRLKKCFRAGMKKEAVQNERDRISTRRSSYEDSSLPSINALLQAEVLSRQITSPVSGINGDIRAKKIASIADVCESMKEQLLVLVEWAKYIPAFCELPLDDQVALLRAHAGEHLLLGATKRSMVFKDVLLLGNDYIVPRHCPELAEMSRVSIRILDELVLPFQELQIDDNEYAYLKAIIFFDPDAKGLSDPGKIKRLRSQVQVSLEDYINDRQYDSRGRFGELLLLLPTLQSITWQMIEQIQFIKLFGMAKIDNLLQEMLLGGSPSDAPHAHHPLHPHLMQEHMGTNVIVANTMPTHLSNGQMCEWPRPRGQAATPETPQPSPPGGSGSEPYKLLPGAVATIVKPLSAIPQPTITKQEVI
The assay is described as follows: protein-binding microarray. The note with it: COS-7 nuclear extract on double-stranded Agilent 4x180k PBM; binding buffer, salt, pH and temperature not given; high values mean tight binding; double strand, one strand shown; sequences stand for … in …GCCTAGGGAGATTAGAGTATCGGTCGA
Take CTGGGGCCTCCTGGCTGGGCAGGCTCCCTC: the binding signal (log2 normalized intensity) was -1.19.

Turning to CAATCCGCATCTTTTATAAGGGGCAGCAAA, the binding signal (log2 normalized intensity) is -0.685.

On to GAGAAATCTAGGCTGATAAGACACATTCCA, for which the binding signal (log2 normalized intensity) is -1.16.

Consider TGACAGTGTGTACATAACAATGCAAGATAA, for which the binding signal (log2 normalized intensity) was -1.03.

Regarding CACAGCTAAGAGCCGCAGAGCTAATGTTCA, the binding signal (log2 normalized intensity) was -1.07.

Consider GAGAGTATGGGATGATCAGTAAGGAGAGGG, for which the binding signal (log2 normalized intensity) is -1.1.

Take AAGCAAGCCCTATTAGGCATTTCATTTGCC: the binding signal (log2 normalized intensity) was -1.11.

In the case of AGAAAATGTGCCCTTTGGACAGAAATATCA, the binding signal (log2 normalized intensity) is 4.29.

Consider CAGCTGGGCTTGTTCAAATAACAGCAACAT, for which the binding signal (log2 normalized intensity) was -1.07.

With GATGTAATAGGGTGACAGTATCAAAGTCCC, the binding signal (log2 normalized intensity) amounted to 2.41.

In the case of GGAGCAAAGGTTGGGGGTGGGGAGGAAGCA, the binding signal (log2 normalized intensity) is -1.08.

For the sequence CAACTCAGAGACAGGGATTGGTTCTCAACA, the binding signal (log2 normalized intensity) was -1.07.

TCCAAAATACGACCTTTGGACAGGGTGACG: the binding signal (log2 normalized intensity) stood at 6.8.

GCATTATCAGGCAAGGGTGGTGACAAAGAC: the binding signal (log2 normalized intensity) came out at 0.479.

In the case of GGCTGATGTCTTTCTGGCTGGAGAGGAGGT, the binding signal (log2 normalized intensity) was 0.687.

Take ACTGGTTTCTTGTCTGCCCCAGGGCTTTGC: the binding signal (log2 normalized intensity) stood at 1.78.

Consider TCTCTTATAGGTGTTTATAAAGTTGGGAAA, for which the binding signal (log2 normalized intensity) was determined as 1.74.

Consider CTGGGTGGGGATAAGAAAAGATCAAGGGCA, for which the binding signal (log2 normalized intensity) was -0.893.

As for GCAACTACAAGGAGCAGCCTAGTAAAAGGT, the binding signal (log2 normalized intensity) is -1.1.

Consider TTGGGCCAGTCGCTTAACCTCTTGATCCTG, for which the binding signal (log2 normalized intensity) was 1.34.

As to GTTCATTTGCACTTGTTTTTTCAGGTGTTG, the binding signal (log2 normalized intensity) was 2.38.

With TTAAGATTTGACCCTTGGCCAGGTGCAGTG, the binding signal (log2 normalized intensity) was 4.65.

For the sequence GCCTCCCTCCTTCCGCGGACGTGTTCCCAC, the binding signal (log2 normalized intensity) stood at 2.05.

For the sequence GCCCAGATAAGAACTGCAAGGCTAGAGATT, the binding signal (log2 normalized intensity) was -1.18.

For CTGAGACAACACTCAGGATACCTAAGCCCC, the binding signal (log2 normalized intensity) amounted to 0.598.

Turning to CTTTGGCTCCAGAGTCCACATTCTTAAACG, the binding signal (log2 normalized intensity) came to 2.12.

Turning to GGAGGAGGTCAAAGTGCAACTACAAGGAGC, the binding signal (log2 normalized intensity) is 4.65.

For the sequence TCCATCTAGCAGCCCCAACCCACTGTTGCC, the binding signal (log2 normalized intensity) is 2.93.

GAGGAGCTAACAGTAAAACTGAGATCTAAG: the binding signal (log2 normalized intensity) was -1.03.

TGGGCCCACAGATGATCAAAGGTCAGTCTT: the binding signal (log2 normalized intensity) was 6.53.

Take GGGCAGGTGGAGGTGGGATACTGGGAGGGA: the binding signal (log2 normalized intensity) is -1.1.

Regarding TTGGTTGGAGAAAGCAGCCAACCAGAGGCT, the binding signal (log2 normalized intensity) was -1.01.

As for GTCACCAAAGCAAGCAGATGATATGTGATG, the binding signal (log2 normalized intensity) was -0.764.

As for TTCAAAGGTTATCTGCTGGCAGAATTCCTT, the binding signal (log2 normalized intensity) is -1.08.

For TGTTGATAAAGTGATTAGTGCAAGAATCCA, the binding signal (log2 normalized intensity) is -0.902.

For the sequence GAGTCCAAACTGGGACCTGTGACACTCTGC, the binding signal (log2 normalized intensity) was -0.119.

Take AGATCCTCTAAATTCCAGGGCTGGGTCCAG: the binding signal (log2 normalized intensity) was 2.23.

In the case of TGGAAAAACCACACACTCCATAACTTTGGG, the binding signal (log2 normalized intensity) is -1.08.

For the sequence ATTTCCAAGACCTCTTTGCGGATAGATATG, the binding signal (log2 normalized intensity) came out at 0.223.

As for TACTCTAGTACTAGGCAGCATAGGGCCACT, the binding signal (log2 normalized intensity) is -1.06.

On to GGGGCTGCCGGGAAAGGCATACGTGCTTAA, for which the binding signal (log2 normalized intensity) was -1.18.

As to TCAGGACTCTAACTGGCTTTAAGAGGAATG, the binding signal (log2 normalized intensity) was -0.943.

CCCTTGGCCCCGCTGTCCTGATCCCTGAGG: the binding signal (log2 normalized intensity) amounted to 1.3.

TTATCAGGTCTTTCTTTCAGAACAGAGCCC: the binding signal (log2 normalized intensity) turned out to be 1.32.

For CTAGCCGCTCCTCCCACGTCGCTGCCGCAG, the binding signal (log2 normalized intensity) was -1.18.

On to GGTTGGCGCCAATACCTGCCGCGCGGGGCG, for which the binding signal (log2 normalized intensity) was -1.14.

Consider GACTCATTATCCCCCGCAACTATTTATGAG, for which the binding signal (log2 normalized intensity) was 2.91.

Regarding AAAAAGCTTTTGTCATGACCTTCGCTCTTG, the binding signal (log2 normalized intensity) was determined as 5.5.

As for GATATTCAGACCTCTTTGAGGCCTTCGTTG, the binding signal (log2 normalized intensity) is -1.19.

For the sequence CCATCTCGTCCCGTCAATCTGCAGCCGCCG, the binding signal (log2 normalized intensity) was -1.23.

As to TATTTGCTCACCAGTGACCAATAATGTAAT, the binding signal (log2 normalized intensity) came to 0.767.

CTCTCCAAGCCAGAAAGATGTTTGCCCCAA: the binding signal (log2 normalized intensity) was 2.98.

Turning to AATCCATTGTCAATACCCTGTTATTAGTCC, the binding signal (log2 normalized intensity) worked out at 0.805.

Consider CTCCCACCTTCGAGCTTCACCTTTGTCCTC, for which the binding signal (log2 normalized intensity) came out at 5.27.

GAATGTTGAACCTTTCTTTGTCTTTGCAAT: the binding signal (log2 normalized intensity) is 2.02.

Take GAGATGGAATCTTGCCCTGTCGCCCAGGCT: the binding signal (log2 normalized intensity) was -0.996.

AGATTCGGTGAGGGATTGTTTAGGTACAAA: the binding signal (log2 normalized intensity) was determined as 1.53.

On to CCCACCTATGTCCTTATCCTCATTGTGTGC, for which the binding signal (log2 normalized intensity) stood at 2.45.

Regarding ATTTTTATGTGGCATTTCAAAGGAGGAGGC, the binding signal (log2 normalized intensity) was -0.651.

For the sequence AGAATAAACGCTGAAGTCTCAAAGTTCACC, the binding signal (log2 normalized intensity) came out at 3.52.

ATGTACATGTGCAAAAGCACCCAAGGCTCT: the binding signal (log2 normalized intensity) is -0.928.

Take AGAAATAGCATCACGAAAGGCAACATCTTG: the binding signal (log2 normalized intensity) is -1.12.

For the sequence TCCGGCTGGCCTTCCCTCCTCCCTCCGTCT, the binding signal (log2 normalized intensity) stood at 1.98.

For CTGAAGTCTCAAAGTTCACCACTTTTGCAA, the binding signal (log2 normalized intensity) was determined as 2.61.

Turning to TCGCGAGAGAACTGAAAAAGGGGACCGGCC, the binding signal (log2 normalized intensity) is -1.06.

On to TATTTGGAACCAAGAGCAGATTTGTTTGCT, for which the binding signal (log2 normalized intensity) was -1.12.

As to AGTGGTTTCAAGGTGACCCCACGGAGCTGC, the binding signal (log2 normalized intensity) worked out at 2.52.

Take CATTCAAAGCCTAGGCTCCAGGGCACTGCC: the binding signal (log2 normalized intensity) is -1.32.

With GGGAAGCAGTGAGGGTGGGTTCAAAGGTCA, the binding signal (log2 normalized intensity) came to 8.24.

With GAAATTCTGGCCAACCAGCACTTCTGGAGG, the binding signal (log2 normalized intensity) is -1.17.

In the case of AGCATGCGGTAAAGAAGCCAGCCAAATCCC, the binding signal (log2 normalized intensity) was -1.03.

Consider TAAGGTTCCAGCAAAGAGATTAGGACACAG, for which the binding signal (log2 normalized intensity) was -1.22.

On to TTCCCCCTCCCTGGACTCCTGGGACTTATT, for which the binding signal (log2 normalized intensity) was determined as 3.36.
